# Laboratory results reported in US20150307576A1, “FGF-10 COMPLEXES” (PERMEON BIOLOGICS, INC., priority 2012, published 2015).
# Assays:
# Hela cells = assay: Internalization of FGF10-mCherry fusion proteins, flow cytometry; format: cell-based; details: 2 uM, 2 h
# Method: (§1) On the day prior to the assay, 10^6 HepG2 or Hela cells were plated in each well of a 6-well plate and incubated in the 37° C. CO2 incubator. The cells were washed once with PBS and then were replenished with 2 mL of growth media containing 2 uM of wild-type (wt) or mutant (mut) FGF10-mCherry fusion proteins and were incubated for 2 h in the 37° C. CO2 incubator. The cells were then washed twice with PBS and detached with 0.25% trypsin/EDTA. The cells were washed one more time with PBS and then analyzed using a BD Accuri™ C6 flow cytometer. The level of internalization was quantified as the mean intensity of mCherry fluorescence in the cells. As shown in the table below, the mCherry fusion proteins that included the tetramutant FGF10 internalized equally well as the mCherry fusion proteins that included wild-type FGF10 in both HepG2 and Hela cells. For both tested fusion proteins, the FGF10 portion is the domain of FGF10 set forth in SEQ ID NO: 2. The mut FGF10 has the following four substitutions: R78A, T114A, E158A, K195A).
# HepG2 cells = assay: as above; format: cell-based; details: 2 uM, 2 h
# Method: as §1
molecule,measurement,setting,value
"mut FGF10-mCherry: mCherry fusion protein with tetramutant FGF10 domain, SEQ ID NO: 11 (protein) MEQKLISEEDLGSGRHVRSYNHLQGDVAWRKLFSFTKYFLKIEKNGKVSGTKKENCPYSILEIRSVEIGVVAVKAINSNYYLAMNKKGKLYGSKEFNNDCKLKERIEANGYNTYASFNWQHNGRQMYVALNGKGAPRRGQKTRRANTSAHFLPMVVHSGHGGGGSGGGGS[about 250 residues omitted]LEGHGHHHHHH",mean intensity of mCherry fluorescence,Hela cells,"62,950"
same,mean intensity of mCherry fluorescence,HepG2 cells,"42,566"
